Data reported in PubChem BioAssay AID1347120 (National Center for Advancing Translational Sciences (NCATS), 2019).
Screen size: about 390,000 compounds; about 930 (0.24%) were called active. Inconclusive means that the source gave no clear call. Such entries were picked first, then a sample of the others. Calls come from the whole dose curve; as a rule, active = well fitted activation curve with a large enough effect; inconclusive = small, poorly fitted or top-dose-only effect; inactive = no such curve, though single readings can be large or run the other way. A potency beside an inconclusive call is a rough fit, not a confirmed value.

Assay: qHTS for Suppressors of FUS Proteinopathy: Primary screen using FUS-linked yeast assay; note: nearly all actives have a fitted effect of over 55% in size;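 for growth rescue (activation): plate controls were DMSO vehicle for no effect and reference control for full effect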
Settings: S. cerevisiae FUS-expressing, OD600, 24 h; Potency: growth rescue; growth rescue (activation): at 76.6 µM (top of the series)
Method in brief: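 Yeast expressing FUS under galactose induction, OD 0.005 in 2% galactose medium; compounds in a dilution series, 24 h at 30C. Growth rescue by absorbance at 600 nm; CP55940 positive control, DMSO negative.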
Potency is the fitted concentration of half-maximal effect; tags give direction and shape of the fitted curve.

SMILES	Potency	growth rescue (activation)
COc1ccc(-c2csc(N3CCN(c4cc(C)nc5ccccc45)CC3)n2)cc1OC	inconclusive: 10 µM [activator, partial curve]	–
COc1cc(C(=O)Nc2nonc2-c2ccc(C)c(C)c2)cc(OC)c1OC	inactive	–
Cc1cnc([N+](=O)[O-])n1CCOC(=O)NC(=O)c1cccc(F)c1	inactive	–
COc1ccccc1-n1c(SCC(=O)Nc2cccc(C)c2)nc2c(c1=O)SCC2	inconclusive: 50.1 µM [activator, single point]	–
Cc1nnc(SCC(=O)c2ccc(S(=O)(=O)N3CCOCC3)cc2)n1-c1ccccc1	inconclusive: 28.2 µM [activator, partial curve, poor fit]	–
CC(C)C[C@H]1CN([C@@H](CC(C)C)CN2CCCC2CN2C(=S)NC[C@@H]2Cc2ccc(O)cc2)C(=S)N1CC1CCCCCC1 (some centres undefined)	inconclusive: 28.2 µM [activator, single point]	–
COc1cc([N+](=O)[O-])cc2sc(NC(C)=O)nc12	inactive	–
CC(C)(C)NC(=O)C(c1ccc(-c2ccccc2)cc1)N(C[C@H]1CC[C@@H]([C@@H]2CC[C@H](CO)O2)O1)C(=O)c1ccccc1F (some centres undefined)	inconclusive: 14.1 µM [activator, partial curve, poor fit]	–
COc1ccc(C2CC(c3ccc4ccccc4c3)=NN2C(=O)CN2C(=O)CCC2=O)cc1 (centres undefined)	inconclusive: 25.1 µM [activator, partial curve, poor fit]	–
COc1cccc(N2CCN(C(=O)c3ccc(NC(=O)c4nsc5ccccc45)cc3)CC2)c1	inconclusive: 31.6 µM [activator, partial curve, poor fit]	–
Cc1nc(-c2ccc(Cl)cc2)sc1C1(C)CC(c2ccccc2Br)=NO1 (centres undefined)	inactive	–
O=C(CCCn1c(=S)[nH]c2ccc(Br)cc2c1=O)N1CCN(c2ccccn2)CC1	inactive	–
O=C(CSc1cn(CC(=O)N2CCCCC2)c2ccccc12)Nc1ccc(C(F)(F)F)cc1	inactive	–
O=C(CCc1ccccc1)N[C@H]1[C@H](OC(=O)c2ccc3ccccc3n2)CCC[C@@]12C(=O)N(Cc1ccccc1)c1ccccc12	inconclusive: 11.2 µM [activator, partial curve, poor fit]	–
CCn1c(SCc2ccccc2)nc2cc(OC)c(OC)cc2c1=O	inconclusive: 35.5 µM [activator, single point]	–
CCN(CC(=O)Nc1ccc(NC(C)=O)cc1)C(=O)c1cn(-c2ccccc2)nc1-c1cccs1	inconclusive: 22.4 µM [activator, partial curve, poor fit]	–
Cc1ccc2c(C)c(C(=O)N3CCN(C4CCS(=O)(=O)C4)CC3)oc2c1C (centres undefined)	inactive	–
COc1ccc([C@H]2/C=C\CN(S(=O)(=O)c3cccc4cccnc34)[C@@H](C)C(=O)N2Cc2ccc(F)cc2)cc1	inconclusive: 44.7 µM [activator, single point]	–
Cc1ccc(S(=O)(=O)N2CCN(C(=O)CSCc3ccc(C(C)C)cc3)CC2)cc1	inconclusive: 31.6 µM [activator, single point]	–
CCN(c1cccc(C)c1)c1ncnc2c1cnn2-c1cccc(Cl)c1	inactive	–
CCCC(O)(c1ccc(Br)cc1)C(CN1CCOCC1)c1ccc(Cl)cc1 (centres undefined)	inconclusive: 5.01 µM [activator, full curve]	–
O=C(NNC(=O)C1[C@H]2CCCC[C@@H]12)c1ccc(=O)oc1 (some centres undefined)	inconclusive: 50.1 µM [activator, single point]	–

SMILES	Potency	growth rescue (activation)
Cc1ccc(C=Nn2c(-c3n[nH]c4c3CCC4)n[nH]c2=S)o1	inactive	–
Cc1ccc(C)c(-c2nnc(NC(=O)CCS(=O)(=O)c3ccccc3)o2)c1	inactive	–
O=S1(=O)CCOC[C@H](Cc2ccccc2)N1Cc1cccc(Cl)c1	inactive	–
Cn1c(NC(=O)c2ccccc2NC(=O)C(C)(C)C)nc2ccccc21	inconclusive: 39.8 µM [activator, single point]	–
Cn1c(=O)n(CCCc2ccccc2)c(=O)c2c1nc1n2CCN1c1ccc(F)cc1	inactive	–
CCOc1cccc(C(=O)Nc2nnc(-c3ccco3)s2)c1	inconclusive: 7.94 µM [activator, partial curve, poor fit]	–
CCn1c(SCC(=O)NN=Cc2c[nH]c3ccccc23)nc2ccccc21	inactive	–
COc1ccc(NC(=O)CN(C)C(=O)/C=C/c2cn(-c3ccccc3)nc2-c2ccc(C)cc2)cc1	inconclusive: 35.5 µM [activator, partial curve]	–
O=S(=O)(Nc1cccc(-c2ccc(N3CCCCCC3)nn2)c1)c1ccc(C(F)(F)F)cc1	inconclusive: 31.6 µM [activator, single point]	–
CCc1ccc(C2c3[nH]c4ccccc4c3CCN2C(=O)CNC(N)=O)cc1 (centres undefined)	inconclusive: 17.8 µM [activator, partial curve, poor fit]	–
CC(NC(=O)c1ccccc1O)c1ccccc1 (centres undefined)	inactive	–
COc1ccc(-c2nn(-c3cccc(F)c3)c3c2cnc2cc(OC)c(OC)cc23)cc1	inactive	–
COC(=O)c1c(N2C(=O)[C@H]3[C@@H](C2=O)[C@]2(C(=O)Nc4c(C)cc(C)cc42)N2CCC[C@@H]32)sc(C)c1C	inconclusive: 31.6 µM [activator, single point]	–
COc1ccc(-c2cc(C(F)(F)F)n3nc(C(=O)N(C)Cc4ccccc4)cc3n2)cc1OC	inactive	–
O=C(COC(=O)CCc1c[nH]c2ccccc12)NC1CCS(=O)(=O)C1 (centres undefined)	inconclusive: 50.1 µM [activator, single point]	–
COc1cc2c(cc1OC)C(C)N(C(=O)c1sccc1C)CC2 (centres undefined)	inactive	–
Cc1cc(C)c(C(=O)/C=C/c2ccc3c(c2)OCO3)c(=O)[nH]1	inactive	–
CCc1nn2c(=O)cc(COC(=O)c3ccccc3NC(=O)C3CCCCC3)nc2s1	inactive	–
CCN(C(=O)COC(=O)C(c1ccccc1)c1ccccc1)c1c(N)n(Cc2ccccc2)c(=O)[nH]c1=O	inconclusive: 50.1 µM [activator, single point]	–
COc1ccc(C2=Nn3c(nnc3-c3ccccc3F)SC2)cc1OC1CCCC1	inconclusive: 28.2 µM [activator, single point]	–
O=C1OCCN1C(=O)[C@H]1[C@H](c2ccc(Cl)cc2)C(c2ccc(F)cc2)=NN1c1ccc(Br)cc1	inconclusive: 8.91 µM [activator, full curve, poor fit]	–
CCCCn1c(O)c(/C=C/C=C/C=Nc2ccccc2)sc1=S	inconclusive: 14.1 µM [activator, partial curve, poor fit]	–

SMILES	Potency	growth rescue (activation)
CCCn1c(Sc2nc3c(c(=O)[nH]c(=O)n3C)n2CCC)nc2c1c(=O)[nH]c(=O)n2C	inconclusive: 12.6 µM [activator, partial curve, poor fit]	–
CCOC(=O)c1ccc(N2C(=O)C3C(C2=O)C(C(=O)c2ccc(Cl)cc2)N2CCCC32)cc1 (centres undefined)	active: 12.6 µM	–
CCN(CC)c1ccc(NC(=O)Cn2nc(C)n3cccc3c2=O)c(C)c1	inactive	–
CCc1ccc(N/C(SC)=C(/C#N)C(N)=O)cc1	inactive	–
O=C(Nc1cccc(C(F)(F)F)c1)c1ccc2nc(N3C(=O)CCC3=O)sc2c1	inconclusive: 28.2 µM [activator, single point]	–
NC(=O)CNC(=O)C1CCN(S(=O)(=O)c2ccc(-n3cnnn3)cc2)CC1	inactive	–
CCC/C(C#CCCN1C(=O)c2ccccc2C1=O)=C1/c2ccccc2C(=O)N1c1ccccc1	inconclusive: 11.2 µM [activator, partial curve]	–
CCCCNC(=O)C1(C(=O)C2CC2)CC(C(=O)OCC)=NO1 (centres undefined)	inactive	–
CCC1=C(OC(=O)N(CC)CC)N2C(=O)OC(=NCC3CC3)[C@]2(Cc2ccccc2)[C@H]2C1=CC[C@H]1C(=O)N(c3ccccc3)C(=O)[C@H]12	inconclusive: 5.01 µM [activator, full curve]	–
O=C(NCc1ccco1)c1ccc2c(c1)OCCO2	inactive	–
Cc1cc(C)c(C)c(C(=O)CSc2nnc(-c3ccc4[nH]c(C)c(C)c4c3)o2)c1C	inactive	–
Cc1cccc2cc(CNCC3CCCO3)c(Cl)nc12 (centres undefined)	inconclusive: 15.8 µM [activator, partial curve, poor fit]	–
O=C(CCS(=O)(=O)c1ccccc1)Nc1ccc(F)cc1Cl	inactive	–
C#CCOCCOCCOCCNc1nc(N2CCN(C(=O)CCCCCCCCCCNC(=O)[C@H](CCCCN)n3cc(CCO)nn3)CC2)nc(N2CCN(C(=O)CCCCCCCCCCNC(=O)[C@@H]([C@H](C)O)n3cc(C)nn3)CC2)n1	inconclusive: 12.6 µM [activator, partial curve, poor fit]	–
COc1ccccc1N(C)S(=O)(=O)c1ccc(C(=O)Nc2ccc(C)cc2C)cc1	inconclusive: 31.6 µM [activator, single point]	–
CCOC(=O)c1ccc(NC(=O)Nc2cc3c(cc2N2CCCC2)n(C)c(=O)n3C)cc1	inactive	–
COc1ccc(N2CCN(C(=O)c3cccc(NC(=O)c4nsc5ccccc45)c3)CC2)cc1	inconclusive: 28.2 µM [activator, single point]	–
Cc1ccc(N=C2CCCCCN2C)c(C#N)c1	–	inconclusive: 59.4% [activator]
COC(=O)C1(C(=O)OC)c2ncccc2N(S(=O)(=O)c2ccc(C)cc2)C1CC(=O)c1ccccc1 (centres undefined)	inconclusive: 22.4 µM [activator, partial curve, poor fit]	–
Cc1cc(C)c2c(n1)sc1c(O)cc(=O)[nH]c12	inconclusive: 50.1 µM [activator, partial curve, poor fit]	–
